In PMC12292926:
These are yes or no findings as the source states them, for the method shown. Binding seen in cells or lysates may run through a third protein. Some results given as binding are weak or reduced against the parent protein; the word gives no strength. For part of these data: Where a sequence is shown, tags or fusion partners need not be part of it.

Protein sequences, listed by entry. Tags and fused reporters are not part of them. Lines headed by an entry give the natural chain unless they say otherwise; changes in a name come on top. Chains listed by the source or under a name are the forms on record and can include a tag or linker. Residues count along the entry.
UniProt Q9H4L4: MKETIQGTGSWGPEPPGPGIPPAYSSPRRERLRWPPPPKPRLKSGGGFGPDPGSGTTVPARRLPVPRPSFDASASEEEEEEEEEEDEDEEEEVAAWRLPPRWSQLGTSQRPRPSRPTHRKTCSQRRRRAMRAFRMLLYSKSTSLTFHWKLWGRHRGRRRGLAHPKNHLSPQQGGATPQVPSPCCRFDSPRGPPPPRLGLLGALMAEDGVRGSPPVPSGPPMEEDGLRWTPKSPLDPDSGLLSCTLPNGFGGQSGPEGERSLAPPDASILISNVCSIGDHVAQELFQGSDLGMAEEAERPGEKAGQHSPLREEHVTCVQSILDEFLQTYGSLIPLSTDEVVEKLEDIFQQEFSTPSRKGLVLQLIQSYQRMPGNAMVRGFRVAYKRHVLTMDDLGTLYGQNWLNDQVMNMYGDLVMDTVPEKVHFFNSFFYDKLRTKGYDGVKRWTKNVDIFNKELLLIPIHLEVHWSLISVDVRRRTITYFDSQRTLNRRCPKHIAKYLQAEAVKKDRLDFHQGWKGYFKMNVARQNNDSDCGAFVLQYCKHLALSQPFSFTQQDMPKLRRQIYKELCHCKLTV
SENP3 SUMO protease domain (residues 303 to 574), N-terminal FLAG tag: residues 303-574 of Q9H4L4
UniProt Q9NU22: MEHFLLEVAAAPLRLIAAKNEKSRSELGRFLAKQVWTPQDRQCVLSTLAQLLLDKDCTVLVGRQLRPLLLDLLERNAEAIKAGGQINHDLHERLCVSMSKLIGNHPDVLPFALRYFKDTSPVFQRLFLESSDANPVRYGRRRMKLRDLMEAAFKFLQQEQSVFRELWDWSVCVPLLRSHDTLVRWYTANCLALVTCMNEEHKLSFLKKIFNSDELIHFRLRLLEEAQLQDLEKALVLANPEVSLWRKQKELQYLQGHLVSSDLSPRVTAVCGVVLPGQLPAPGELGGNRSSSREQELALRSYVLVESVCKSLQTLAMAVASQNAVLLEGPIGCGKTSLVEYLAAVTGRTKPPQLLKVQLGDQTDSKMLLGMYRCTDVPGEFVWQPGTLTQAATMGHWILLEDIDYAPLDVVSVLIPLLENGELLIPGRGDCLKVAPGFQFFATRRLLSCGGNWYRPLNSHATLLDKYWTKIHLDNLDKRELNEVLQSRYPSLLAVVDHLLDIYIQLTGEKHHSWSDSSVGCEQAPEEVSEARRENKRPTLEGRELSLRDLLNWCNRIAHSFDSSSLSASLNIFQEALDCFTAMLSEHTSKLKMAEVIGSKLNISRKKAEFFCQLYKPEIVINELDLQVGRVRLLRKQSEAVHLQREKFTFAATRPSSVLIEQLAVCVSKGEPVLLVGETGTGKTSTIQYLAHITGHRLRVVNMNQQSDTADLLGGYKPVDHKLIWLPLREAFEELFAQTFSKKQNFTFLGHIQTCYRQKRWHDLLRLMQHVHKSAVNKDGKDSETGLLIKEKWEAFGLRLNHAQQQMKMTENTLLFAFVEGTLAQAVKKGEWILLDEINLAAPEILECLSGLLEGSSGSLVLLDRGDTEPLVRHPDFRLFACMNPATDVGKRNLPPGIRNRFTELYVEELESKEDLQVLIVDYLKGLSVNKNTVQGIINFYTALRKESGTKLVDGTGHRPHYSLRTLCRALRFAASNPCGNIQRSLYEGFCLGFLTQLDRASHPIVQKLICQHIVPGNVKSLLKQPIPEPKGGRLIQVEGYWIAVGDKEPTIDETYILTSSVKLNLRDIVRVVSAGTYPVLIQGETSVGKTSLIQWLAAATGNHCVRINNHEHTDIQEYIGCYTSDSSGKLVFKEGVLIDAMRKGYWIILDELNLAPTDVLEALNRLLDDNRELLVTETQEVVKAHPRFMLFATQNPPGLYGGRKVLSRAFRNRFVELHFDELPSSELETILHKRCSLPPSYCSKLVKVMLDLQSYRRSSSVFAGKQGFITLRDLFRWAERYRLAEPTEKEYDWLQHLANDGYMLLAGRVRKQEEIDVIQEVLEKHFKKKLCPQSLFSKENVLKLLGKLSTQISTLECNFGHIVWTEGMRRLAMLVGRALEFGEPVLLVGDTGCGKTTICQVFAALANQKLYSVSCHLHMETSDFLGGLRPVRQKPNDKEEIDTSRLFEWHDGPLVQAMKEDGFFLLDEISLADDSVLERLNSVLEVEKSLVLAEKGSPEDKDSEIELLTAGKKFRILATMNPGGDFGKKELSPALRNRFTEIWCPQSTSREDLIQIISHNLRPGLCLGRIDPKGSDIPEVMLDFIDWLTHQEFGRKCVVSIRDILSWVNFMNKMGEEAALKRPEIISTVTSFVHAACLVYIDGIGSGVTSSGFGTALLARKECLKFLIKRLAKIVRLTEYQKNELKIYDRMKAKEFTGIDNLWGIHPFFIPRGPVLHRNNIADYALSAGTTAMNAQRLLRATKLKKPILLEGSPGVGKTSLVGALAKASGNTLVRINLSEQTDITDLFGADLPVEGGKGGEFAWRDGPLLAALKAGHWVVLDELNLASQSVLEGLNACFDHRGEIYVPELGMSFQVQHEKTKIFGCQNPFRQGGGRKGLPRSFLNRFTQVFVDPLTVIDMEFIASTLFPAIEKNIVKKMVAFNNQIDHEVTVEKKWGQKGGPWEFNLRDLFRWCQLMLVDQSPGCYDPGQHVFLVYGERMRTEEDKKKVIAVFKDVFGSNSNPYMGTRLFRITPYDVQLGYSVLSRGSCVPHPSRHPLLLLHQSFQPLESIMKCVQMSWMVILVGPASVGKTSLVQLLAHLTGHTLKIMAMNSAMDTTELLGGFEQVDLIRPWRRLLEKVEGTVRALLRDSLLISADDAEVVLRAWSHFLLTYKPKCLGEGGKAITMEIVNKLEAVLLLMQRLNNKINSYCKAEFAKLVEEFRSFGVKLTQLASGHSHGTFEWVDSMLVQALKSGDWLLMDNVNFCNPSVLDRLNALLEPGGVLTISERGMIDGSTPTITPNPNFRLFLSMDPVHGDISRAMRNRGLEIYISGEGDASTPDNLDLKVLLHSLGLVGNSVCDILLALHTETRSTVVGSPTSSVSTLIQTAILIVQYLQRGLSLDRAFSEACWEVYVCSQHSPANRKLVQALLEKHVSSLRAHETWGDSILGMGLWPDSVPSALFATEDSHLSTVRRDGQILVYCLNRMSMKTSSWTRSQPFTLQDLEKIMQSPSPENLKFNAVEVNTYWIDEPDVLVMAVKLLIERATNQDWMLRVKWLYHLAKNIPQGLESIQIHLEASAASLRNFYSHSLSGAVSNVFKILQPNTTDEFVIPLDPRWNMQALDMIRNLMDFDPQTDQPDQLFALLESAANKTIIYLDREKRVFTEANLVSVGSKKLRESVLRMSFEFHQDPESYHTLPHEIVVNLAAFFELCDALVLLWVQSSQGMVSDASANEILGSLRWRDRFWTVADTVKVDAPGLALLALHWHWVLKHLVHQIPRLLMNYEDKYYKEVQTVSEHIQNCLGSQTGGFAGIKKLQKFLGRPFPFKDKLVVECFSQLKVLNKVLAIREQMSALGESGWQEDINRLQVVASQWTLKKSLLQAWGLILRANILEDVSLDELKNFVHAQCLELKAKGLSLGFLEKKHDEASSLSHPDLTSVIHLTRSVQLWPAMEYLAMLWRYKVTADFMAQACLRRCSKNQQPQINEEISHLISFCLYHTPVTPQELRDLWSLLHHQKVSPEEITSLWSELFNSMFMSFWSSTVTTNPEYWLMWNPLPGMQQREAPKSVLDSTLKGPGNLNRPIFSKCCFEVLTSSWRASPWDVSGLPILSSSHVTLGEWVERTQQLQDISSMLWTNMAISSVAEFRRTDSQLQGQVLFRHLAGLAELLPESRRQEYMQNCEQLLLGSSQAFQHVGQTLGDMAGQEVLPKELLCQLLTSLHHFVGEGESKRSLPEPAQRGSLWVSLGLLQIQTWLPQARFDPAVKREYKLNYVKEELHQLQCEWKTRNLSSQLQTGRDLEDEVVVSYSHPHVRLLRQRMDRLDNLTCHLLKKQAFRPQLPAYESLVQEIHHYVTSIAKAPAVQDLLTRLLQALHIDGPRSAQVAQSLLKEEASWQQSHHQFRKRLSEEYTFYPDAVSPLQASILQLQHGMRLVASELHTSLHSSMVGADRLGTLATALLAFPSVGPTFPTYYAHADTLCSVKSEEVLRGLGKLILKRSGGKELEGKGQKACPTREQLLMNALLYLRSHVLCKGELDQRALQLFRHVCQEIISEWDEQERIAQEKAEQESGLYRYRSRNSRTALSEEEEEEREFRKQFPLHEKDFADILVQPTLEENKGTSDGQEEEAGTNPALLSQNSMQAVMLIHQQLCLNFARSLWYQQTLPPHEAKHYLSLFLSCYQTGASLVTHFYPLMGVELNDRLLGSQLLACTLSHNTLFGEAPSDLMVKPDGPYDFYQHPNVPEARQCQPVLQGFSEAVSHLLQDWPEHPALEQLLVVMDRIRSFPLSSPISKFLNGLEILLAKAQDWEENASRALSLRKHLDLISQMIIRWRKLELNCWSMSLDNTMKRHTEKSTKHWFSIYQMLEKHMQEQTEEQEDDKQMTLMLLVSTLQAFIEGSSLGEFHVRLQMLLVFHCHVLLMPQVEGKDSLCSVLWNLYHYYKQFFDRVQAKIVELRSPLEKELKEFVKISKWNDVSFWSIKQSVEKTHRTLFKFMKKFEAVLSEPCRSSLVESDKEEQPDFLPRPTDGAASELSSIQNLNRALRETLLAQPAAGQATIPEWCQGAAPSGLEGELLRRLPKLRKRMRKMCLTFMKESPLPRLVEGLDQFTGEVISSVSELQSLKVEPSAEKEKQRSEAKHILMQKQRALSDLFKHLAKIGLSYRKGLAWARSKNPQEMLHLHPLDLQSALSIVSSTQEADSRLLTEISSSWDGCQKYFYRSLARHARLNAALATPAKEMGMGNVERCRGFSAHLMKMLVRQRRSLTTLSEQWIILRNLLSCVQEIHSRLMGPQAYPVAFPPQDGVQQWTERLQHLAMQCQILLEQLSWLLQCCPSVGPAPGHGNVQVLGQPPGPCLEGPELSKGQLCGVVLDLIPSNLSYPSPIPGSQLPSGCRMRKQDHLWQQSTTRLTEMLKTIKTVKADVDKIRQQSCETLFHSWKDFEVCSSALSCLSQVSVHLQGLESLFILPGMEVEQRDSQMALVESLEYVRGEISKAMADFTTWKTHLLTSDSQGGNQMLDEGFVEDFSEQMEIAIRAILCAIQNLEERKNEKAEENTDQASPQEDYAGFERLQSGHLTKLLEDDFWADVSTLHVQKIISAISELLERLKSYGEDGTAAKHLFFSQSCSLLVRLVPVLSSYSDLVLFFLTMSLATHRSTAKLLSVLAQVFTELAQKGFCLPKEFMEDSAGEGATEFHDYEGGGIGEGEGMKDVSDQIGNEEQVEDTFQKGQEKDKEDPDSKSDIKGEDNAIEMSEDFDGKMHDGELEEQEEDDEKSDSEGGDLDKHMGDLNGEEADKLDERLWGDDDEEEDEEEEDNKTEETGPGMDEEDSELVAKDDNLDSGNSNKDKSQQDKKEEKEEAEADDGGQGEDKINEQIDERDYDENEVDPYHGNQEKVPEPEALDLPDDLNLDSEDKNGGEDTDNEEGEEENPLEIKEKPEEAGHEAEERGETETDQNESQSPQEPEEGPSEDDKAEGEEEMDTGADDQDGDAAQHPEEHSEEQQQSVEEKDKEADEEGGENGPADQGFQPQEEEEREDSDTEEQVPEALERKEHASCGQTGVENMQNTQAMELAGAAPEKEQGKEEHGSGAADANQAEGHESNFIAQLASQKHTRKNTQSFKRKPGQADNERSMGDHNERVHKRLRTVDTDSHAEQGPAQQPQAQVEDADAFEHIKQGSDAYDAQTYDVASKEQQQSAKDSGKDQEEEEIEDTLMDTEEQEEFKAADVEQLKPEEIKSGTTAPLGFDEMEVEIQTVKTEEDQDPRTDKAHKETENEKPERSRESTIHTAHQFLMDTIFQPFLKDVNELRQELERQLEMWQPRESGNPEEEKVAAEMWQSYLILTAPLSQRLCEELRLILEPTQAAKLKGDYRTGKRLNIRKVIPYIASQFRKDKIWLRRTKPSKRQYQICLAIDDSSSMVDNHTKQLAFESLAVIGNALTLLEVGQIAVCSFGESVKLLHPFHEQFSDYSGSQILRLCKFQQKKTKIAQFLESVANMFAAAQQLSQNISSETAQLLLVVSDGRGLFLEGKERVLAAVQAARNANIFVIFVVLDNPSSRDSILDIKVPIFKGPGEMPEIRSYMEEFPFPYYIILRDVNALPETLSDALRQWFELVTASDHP

Assays:
[1] = target: PELP1, wild type, C-terminal FLAG tag (human) (UniProt Q8IZL8); test: co-IP; anti-FLAG M2 affinity gel; FLAG-tagged PELP1 variants as bait, exogenous rixosome subunits co-transfected in HEK293FT; lysis in 50 mM Hepes pH 7.5, 200 mM NaCl, 5 mM MgCl2, 10% glycerol, 0.5% NP-40, 1 mM DTT, 4°C; SDS-PAGE and Western blot
[2] = target: PELP1 K826R (SUMOylation site lysine 826 to arginine) (human) (UniProt Q8IZL8); test: as above
[3] = target: T1, TEX10, wild type, N-terminal GFP tag (human) (UniProt Q9NXF1); test: co-IP; anti-GFP nanobody Sepharose; N-terminally GFP-tagged TEX10 variants as bait, exogenous rixosome including LAS1L-NOL9 co-transfected in HEK293FT; Western blot
T1 sequence: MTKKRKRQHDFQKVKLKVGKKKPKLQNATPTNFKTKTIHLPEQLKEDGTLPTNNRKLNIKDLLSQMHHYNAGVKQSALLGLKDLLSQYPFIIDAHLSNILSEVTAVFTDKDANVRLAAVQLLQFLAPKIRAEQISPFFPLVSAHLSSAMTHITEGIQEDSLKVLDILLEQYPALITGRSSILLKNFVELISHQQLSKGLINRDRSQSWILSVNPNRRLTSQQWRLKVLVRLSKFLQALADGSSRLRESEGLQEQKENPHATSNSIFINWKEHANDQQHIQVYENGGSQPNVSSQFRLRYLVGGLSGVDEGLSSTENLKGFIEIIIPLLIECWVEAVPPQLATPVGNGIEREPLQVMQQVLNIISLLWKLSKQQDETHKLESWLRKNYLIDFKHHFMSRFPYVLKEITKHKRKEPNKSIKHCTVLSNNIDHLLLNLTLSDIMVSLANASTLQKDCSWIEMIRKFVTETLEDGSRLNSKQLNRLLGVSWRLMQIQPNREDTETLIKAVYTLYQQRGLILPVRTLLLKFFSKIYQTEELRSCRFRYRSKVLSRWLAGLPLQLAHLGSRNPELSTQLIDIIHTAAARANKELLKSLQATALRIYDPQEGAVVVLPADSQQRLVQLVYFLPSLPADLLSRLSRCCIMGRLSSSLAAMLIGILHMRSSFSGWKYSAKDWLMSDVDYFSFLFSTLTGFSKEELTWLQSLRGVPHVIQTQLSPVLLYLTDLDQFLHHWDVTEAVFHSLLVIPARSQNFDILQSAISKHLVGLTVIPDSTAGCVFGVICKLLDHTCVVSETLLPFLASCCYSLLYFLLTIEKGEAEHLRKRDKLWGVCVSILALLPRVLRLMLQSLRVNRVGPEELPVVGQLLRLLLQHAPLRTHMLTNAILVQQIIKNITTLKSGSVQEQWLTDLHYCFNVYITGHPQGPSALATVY

[4] = target: SENP3 SUMO protease domain (residues 303 to 574), N-terminal FLAG tag (human) (UniProt Q9H4L4); test: co-IP; anti-FLAG M2 affinity gel; N-terminally FLAG-tagged SENP3 truncations as bait, exogenous rixosome co-transfected in HEK293FT; Western blot
[5] = target: endogenous PELP1 (human (endogenous in HEK293FT)) (UniProt Q8IZL8); test: co-IP; nontransfected HEK293FT lysate with a nonspecific nuclease; 1 μg anti-PELP1 antibody (normal rabbit IgG as control), protein G Sepharose, 4°C; Western blot
[6] = target: PELP1, wild type, C-terminal FLAG tag (human) (UniProt Q8IZL8); test: co-IP; anti-FLAG affinity gel; FLAG-tagged PELP1 variants with the exogenous rixosome in HEK293FT; endogenous partners; lysis with or without a nonspecific nuclease (histone bands seen with nuclease); native elution with 3x FLAG peptide, total protein stain; bands identified by mass spectrometry and Western blot
[7] = target: PELP1 F1112K, C-terminal FLAG tag (human) (UniProt Q8IZL8); test: as above
[8] = target: FLAG PELP1 C terminus (residues 967 to 1130) (human) (UniProt Q8IZL8); test: co-IP; FLAG PELP1 C terminus (967 to 1130) expressed alone in cells; anti-FLAG purification; Western blot and total protein stain for endogenous MDN1

Substance | binding [1] | binding [2] | binding [3] | binding [4] | binding [5] | binding [6] | binding [7] | binding [8]
SENP3, co-expressed rixosome subunit found with PELP1 or TEX10 baits (from UniProt Q9H4L4 1-574) (enzyme) | binds | binds | binds |  |  |  |  | 
PELP1, co-expressed rixosome subunit found with TEX10 or SENP3 baits (from UniProt Q8IZL8 1-1130) |  |  | binds | binds |  |  |  | 
endogenous MDN1 (AAA-ATPase) (from UniProt Q9NU22 1-5596) (enzyme) |  |  |  |  | binds | binds | no binding | binds
